Measured values published in PubChem BioAssay AID1508642 (National Center for Advancing Translational Sciences (NCATS), 2021).
Screen size: about 43,000 compounds; about 200 (0.47%) were called active. The inconclusive results got no clear call from the source; some entries with a clear call stand among them for comparison. The call rests on the fitted dose curve; in most records, active means well fitted cell-killing curve with a large enough effect; inconclusive means small, poorly fitted or top-dose-only effect, or effect the other way; inactive means flat fitted curve, though single readings scatter. Potencies beside an inconclusive call are fits to weak or partial responses and may not hold up.

Test: Cell viability qHTS assay in S16 Pmp22-F2sN cells; further: nearly all actives have a fitted effect of over 65% in size
Conditions: S16 Pmp22-F2sN Schwann cells viability, CellTiter-Glo, 24 h; series mostly up to 57.5 µM
Outline: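 S16 Pmp22-F2sN Schwann cells (500-1,000/well) in phenol-red-free DMEM with 10% FBS received 23 nL compound by pin tool for 24 h at 37 °C. Viability was then read as CellTiter-Glo luminescence after 15 min at room temperature.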
Potency means the concentration at half of the fitted maximal effect; tags describe the fitted curve by direction and shape.

| Compound | Potency |
| --- | --- |
| CCC(C(=O)N1CCN(c2ccc(OC)cc2)CC1)n1nc(C)n2c(cc3occc32)c1=O (centres undefined) | inconclusive: 39.8 µM [cytotoxic, partial curve, poor fit] |
| CCN(CC)CCCNC(=O)c1nn(-c2ccc(OC)cc2)c(=O)c2c1c1ccccc1n2C | inconclusive: 3.98 µM [rising, full curve, poor fit] |
| CC(=O)Nc1ccc(NC(=O)CCc2c(C)nc3c(c(C)nn3-c3ccccc3)c2C)cc1 | inactive |
| COc1ccc(Nc2c3c(nc4nncn24)CCC3)cc1Cl | inactive |
| COc1ccc(NC(=O)CC2C(=O)N(c3ccc(C)cc3)C(=O)N2Cc2ccc(C)cc2)cc1 (centres undefined) | inactive |
| CCN1c2ccccc2-c2nc(SCC(=O)Nc3cc(F)ccc3F)ncc2S1(=O)=O | inactive |
| CCOC(=O)c1c(C)n(-c2ccccc2)c2ccc(OC(=O)c3cc(OC)cc(OC)c3)cc12 | inactive |
| COc1ccc(Cl)cc1NC(=O)CCCS(=O)(=O)c1nc(-c2ccc(OC)c(OC)c2)cc(C(F)(F)F)n1 | inconclusive: 39.8 µM [cytotoxic, single point] |
| Cc1ccc(-c2n[nH]c3c2C(c2cccs2)N(c2ccc(Cl)cc2)C3=O)cc1 (centres undefined) | inconclusive: 39.8 µM [cytotoxic, single point] |
| Cc1ccc(C)c(C(=O)CSc2nc3cc(C(=O)NC4CCCC4)ccc3c(=O)n2CC2CCCO2)c1 (centres undefined) | inconclusive: 28.2 µM [cytotoxic, single point] |
| CSc1cccc(NC(=O)CN(C)S(=O)(=O)c2ccc3c(c2)CCCN3C(C)=O)c1 | inconclusive: 25.1 µM [cytotoxic, partial curve, poor fit] |
| CC(C)c1nn2c(=O)cc(COC(=O)c3ccccc3Cl)nc2s1 | inactive |
| CC(C)CCNC(=O)c1ccc2c(c1)N(C)C(=O)c1ccccc1S2 | inconclusive: 39.8 µM [cytotoxic, partial curve, poor fit] |
| CSc1nn(Cc2ccc(F)cc2)c(N)c1S(=O)(=O)c1ccc(Cl)cc1 | inconclusive: 28.2 µM [cytotoxic, partial curve, poor fit] |
| COc1cccc(CSc2nc(-c3ccccc3OC)nc3c2Cc2c(CO)cnc(C)c2O3)c1 | inconclusive: 39.8 µM [cytotoxic, single point] |
| Cc1cc(S(=O)(=O)Nc2ccc3[nH]c(=O)sc3c2)ccc1F | inactive |
| COC(=O)c1cc(C)nc2c1c(=O)nc(SCc1c(C)cc(C)cc1C)n2C1CC1 | inconclusive: 39.8 µM [cytotoxic, single point] |
| CC(C)Oc1cccc(C(=O)Nc2ccc3oc(-c4ccccc4)nc3c2)c1 | inconclusive: 39.8 µM [cytotoxic, single point] |
| Cc1ccc(NC(=O)COc2ccc(-c3nn(C)c(=O)c4ccccc34)cc2)c(C)c1 | inconclusive: 39.8 µM [cytotoxic, partial curve, poor fit] |
| Cc1ccccc1CNC(=O)CCSCc1cnn(-c2ccccc2)c1-n1cccc1 | inconclusive: 39.8 µM [cytotoxic, single point] |
| Fc1ccc(N2CCN(c3ncnc4c3nc3n4CCCC3)CC2)cc1 | inconclusive: 2 µM [cytotoxic, full curve, poor fit] |
| COc1ccc(OC)c2sc(N(CCCN(C)C)C(=O)c3ccco3)nc12 | inactive |

| Compound | Potency |
| --- | --- |
| Cc1cc2n(n1)CCC(=O)N2Cc1ccc(C(=O)Nc2cccc(C(F)(F)F)c2)cc1 | inactive |
| CCc1cccc(C)c1NC(=O)CCS(=O)(=O)c1ccc2c(c1)oc(=O)n2C | inconclusive: 25.1 µM [cytotoxic, single point] |
| COc1cc(OC)cc(C(=O)NCCc2csc(-c3ccc(C(F)(F)F)cc3)n2)c1 | inconclusive: 35.5 µM [cytotoxic, single point] |
| Cc1ccc(-n2nc3c(=O)n(C(C)C(=O)NCc4ccccc4C)nc(C)c3c2C)cc1 (centres undefined) | inconclusive: 39.8 µM [cytotoxic, single point] |
| COc1cccc2c1cc1c(=O)n(CC(=O)N3CCC(C)CC3)nc(C)n12 | inactive |
| COc1cc(NC(=O)C2CCN(c3nc4ccccc4nc3C(F)(F)F)CC2)cc(OC)c1 | inconclusive: 10 µM [cytotoxic, partial curve, poor fit] |
| COc1ccc(CCNc2ncnc3onc(C)c23)c(OC)c1 | inconclusive: 1 µM [cytotoxic, partial curve, poor fit] |
| COCCCn1c(=N)c(C(=O)NC2CCCCC2)cc2c(=O)n3cc(C)ccc3nc21 | inconclusive: 10 µM [rising, partial curve, poor fit] |
| CCOc1ccc(NC(=O)CSc2oc(-c3ccc(C)cc3)nc2S(=O)(=O)c2ccc(C)cc2)cc1 | active: 22.4 µM |
| Cc1cccc(CNC(=O)CN2C(=O)CSc3c2c(C)nn3-c2ccccc2)c1 | inconclusive: 22.4 µM [rising, single point] |
| CCOC(=O)c1cnc2ccc(OCC)cc2c1Nc1ccc(OCc2ccccc2Cl)cc1 | inconclusive: 25.1 µM [cytotoxic, partial curve, poor fit] |
| CCOc1ccc(Br)cc1C1NC(=O)c2c(sc3c2CCN(C)C3)N1 (centres undefined) | inconclusive: 31.6 µM [cytotoxic, single point] |
| Cc1ccc(SCc2nc(-c3ccc(C(=O)NCC(C)c4ccccc4)cc3)oc2C)cc1 (centres undefined) | inconclusive: 25.1 µM [cytotoxic, single point] |
| Nc1c(-c2nc(-c3ccc4c(c3)OCO4)cs2)c2ccccn2c1C(=O)c1ccc(Cl)cc1 | inconclusive: 7.08 µM [cytotoxic, single point] |
| CCc1ccc(S(=O)(=O)c2nnn3c2nc(NCc2ccccc2)c2cc(Cl)ccc23)cc1 | inconclusive: 14.1 µM [cytotoxic, partial curve, poor fit] |
| COc1cc(NS(=O)(=O)c2ccc(-c3cc(C)no3)cc2)cc(OC)c1 | inconclusive: 1.41 µM [cytotoxic, full curve] |
| CCCNC(=O)C(Cc1ccccc1)NS(=O)(=O)c1ccc2c(c1)c(=O)n(C)c(=O)n2C (centres undefined) | inconclusive: 0.0251 µM [rising, full curve, poor fit] |
| CCOc1ccc(C(=O)Nc2ccc3c(c2)OCCO3)cc1Br | inactive |
| CCOC(=O)CSc1nc2c(sc3ccccc32)c(=O)n1Cc1ccc(OC)cc1 | inconclusive: 17.8 µM [rising, partial curve, poor fit] |
| Nc1c(C(=O)c2ccccc2)sc(Nc2ccc(Cl)c(Cl)c2)c1C(=O)Nc1ccccc1 | inactive |
| COc1cccc(CNC(=O)c2cc3ccc4cccnc4c3[nH]2)c1 | inactive |
| O=C(c1ccco1)N1CCN(C(=O)c2cnn(-c3cccc(F)c3)c2C2CCNCC2)CC1 | inactive |

| Compound | Potency |
| --- | --- |
| COc1ccccc1OCc1nc(-c2cccc(C)c2)no1 | inactive |
| CCC1CN(C(=O)N2CCC(C(=O)N3CCN(c4cc(C)ccc4C)CC3)CC2)c2ccccc2O1 (centres undefined) | inconclusive: 39.8 µM [cytotoxic, single point] |
| CC(=O)Nc1ccc(Nc2ncnc3sc4c(c23)CCCC4)cc1 | inconclusive: 28.2 µM [cytotoxic, partial curve, poor fit] |
| Cc1cccc(C(=O)N2CCc3cc(CNS(=O)(=O)c4cccs4)ccc32)c1 | inactive |
| Cc1ccc2nc(N(Cc3cccnc3)C(=O)CCOc3ccccc3)sc2c1 | inconclusive: 35.5 µM [cytotoxic, single point] |
| CCOC(=O)c1c(C)c(-c2ccccc2)n(CC(=O)Nc2cccc(C)c2C)c1C | inactive |
| CCc1nc2cccnc2n1-c1ccc(CC(=O)Nc2c(C)cccc2C)cc1 | inactive |
| Cc1cccc(Cn2c(SCc3ccc(C(=O)NCc4ccccc4F)cc3)nc3ccncc32)c1 | inconclusive: 39.8 µM [cytotoxic, single point] |
| CC1CCCCN1C(=O)Cn1ncc2c3ccccc3n(Cc3ccccc3F)c2c1=O (centres undefined) | inconclusive: 15.8 µM [cytotoxic, single point] |
| COc1ccc(CN(C(=O)c2cc3ccccc3oc2=O)C2CCS(=O)(=O)C2)cc1OC (centres undefined) | inactive |
| CC1CN(C(=O)CCC(=O)Nc2cc(F)ccc2F)c2ccccc2S1 (centres undefined) | inactive |
| NCCc1nc2cccnc2n1-c1ccccc1 | inconclusive: 35.5 µM [rising, partial curve, poor fit] |
| CCC1CCCCN1S(=O)(=O)c1cc(C(=O)Nc2ccc(C)c(F)c2)ccc1F (centres undefined) | inconclusive: 39.8 µM [cytotoxic, partial curve, poor fit] |
| CCc1nn2c(=O)cc(COC(=O)c3ccc(NC(=O)COc4ccc(C)cc4)cc3)nc2s1 | inactive |
| Cn1c(SCC(=O)N2CCCc3ccccc32)ncc(C(=O)Nc2ccccc2)c1=O | inconclusive: 1.26 µM [rising, partial curve, poor fit] |
| CCOC(=O)c1c(C)n(-c2ccccc2)c2ccc(OC(=O)c3cccc(C)c3)cc12 | inconclusive: 25.1 µM [cytotoxic, single point] |
| O=C(NCCc1ccccc1)C1CCN(Cc2cc3ccccc3n2Cc2cccc(Cl)c2)CC1 | inconclusive: 28.2 µM [cytotoxic, single point] |
| COc1cccc(Nc2sc(C(=O)c3ccc(Cl)cc3)c(N)c2C(=O)NCc2ccc(C)cc2)c1 | inconclusive: 7.94 µM [cytotoxic, partial curve, poor fit] |
| CN(CC(=O)Nc1ccccc1F)S(=O)(=O)c1ccc2c(c1)c(=O)n(C)c(=O)n2C | inactive |
| Cc1ccc(-c2nnc(Nc3cccc(O)c3)c3ccccc23)cc1S(=O)(=O)NCC1CCCO1 (centres undefined) | inconclusive: 22.4 µM [cytotoxic, single point] |
